The list shows a part of the results. Repeats are few or missing, and single values can be far off.

Cell count data for 34 molecules are collected here from the supplement of paper PMC4604168 (melanoma cell lines).
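Note: cells treated in 1,536-well plates, then fixed and DAPI-stained, with nuclei counted from automated high-throughput microscope images.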

For the test, the system named is UACC62. The test is described as follows: cell count relative to DMSO control; melanoma cells; higher = more viable cells. The settings on record: library dose: standard library concentration; 72 h.
Molecule `O=c1[nH]nc(Sc2ncc([N+](=O)[O-])s2)n1-c1ccc2c(c1)OCCO2` + COc1cc(N2CCC(N3CCN(C)CC3)CC2)ccc1Nc1ncc(Cl)c(Nc2ccccc2S(=O)(=O)C(C)C)n1 [NVP-TAE684] (first compound 1 µM, partner dose 0.4 µM) yielded a cell count of 85.1%.

`O=c1[nH]nc(Sc2ncc([N+](=O)[O-])s2)n1-c1ccc2c(c1)OCCO2` + N#Cc1c(O)c2c(-c3ccc(-c4ccccc4O)cc3)csc2[nH]c1=O [A769662] (first compound 1 µM, partner dose 10 µM): the cell count was 105%.

Molecule `O=c1[nH]nc(Sc2ncc([N+](=O)[O-])s2)n1-c1ccc2c(c1)OCCO2` + O=c1cc(-c2cccc3c2Sc2ccccc2S3)oc(N2CCOCC2)c1 [KU55933] (first compound 1 µM, partner dose 5 µM) came in with a cell count of 76.1%.

For the molecule `O=C(Nc1cccc(Cl)c1)Nc1ncc(CCNc2ncnc3ccsc23)s1` + CC(C)CCN1c2nc(Nc3cc(F)c(O)c(F)c3)ncc2N(C)C(=O)C1C [BID1870] (first compound 0.004 µM, partner dose 1 µM), the cell count was determined as 81.5%.

In turn, `Cn1cncc1[C@@](N)(c1ccc(Cl)cc1)c1ccc2c(c1)c(-c1cccc(Cl)c1)cc(=O)n2C` [tipifarnib] + COc1cc(N2CCC(N3CCN(C)CC3)CC2)ccc1Nc1ncc(Cl)c(Nc2ccccc2S(=O)(=O)C(C)C)n1 [NVP-TAE684] (first compound 0.05 µM, partner dose 0.4 µM) returned a cell count of 62.3%.

As to `C[C@@H]1CCN(C(=O)CC#N)C[C@@H]1N(C)c1ncnc2[nH]ccc12` + CCCCCCCCCCCC1=C(O)C(=O)C=C(O)C1=O [Embelin] (first compound 5 µM, partner dose 6 µM), the cell count is 120%.

Consider `C[C@@H]1CCN(C(=O)CC#N)C[C@@H]1N(C)c1ncnc2[nH]ccc12` + Cc1cc([N+](=O)[O-])ccc1NS(=O)(=O)c1cc(Cl)ccc1Cl [FH535] (first compound 5 µM, partner dose 5 µM), for which the cell count came to 94.4%.

`O=c1[nH]nc(Sc2ncc([N+](=O)[O-])s2)n1-c1ccc2c(c1)OCCO2` + COc1ccc(COc2ccc(Cc3cnc(N)nc3N)cc2OC)cc1 [GW2580] (first compound 1 µM, partner dose 5 µM): the cell count came to 84.2%.

In turn, `O=C(O)c1ccc(-c2c[nH]c3ncc(-c4ccccc4)cc23)cc1C1CCCC1` + Oc1cc(-c2nc(-c3ccccc3)[nH]c2-c2ccncc2)ccc1Cl [L779450] (first compound 0.8 µM, partner dose 1 µM) gave a cell count of 54.8%.

In turn, `CC1(C)NC(=O)N(c2ccc([N+](=O)[O-])c(C(F)(F)F)c2)C1=O` [nilutamide] + COc1ccc(-c2ccc3c(N4CCOCC4)nc(N4C[C@@H](C)O[C@@H](C)C4)nc3n2)cc1CO [KU0063794] (first compound 5 µM, partner dose 0.1 µM) displayed a cell count of 113%.

Molecule `O=c1[nH]nc(Sc2ncc([N+](=O)[O-])s2)n1-c1ccc2c(c1)OCCO2` + C[C@@H](Oc1cc(-c2cnn(C3CCNCC3)c2)cnc1N)c1c(Cl)ccc(F)c1Cl [Crizotinib] (first compound 1 µM, partner dose 1 µM) returned a cell count of 82.6%.

In turn, `O=C(Nc1cccc(Cl)c1)Nc1ncc(CCNc2ncnc3ccsc23)s1` + Cc1cc([N+](=O)[O-])ccc1NS(=O)(=O)c1cc(Cl)ccc1Cl [FH535] (first compound 0.004 µM, partner dose 5 µM) yielded a cell count of 64.5%.

In turn, `O=c1[nH]nc(Sc2ncc([N+](=O)[O-])s2)n1-c1ccc2c(c1)OCCO2` + O=S(=O)(c1ccccc1)N(CC(F)(F)F)c1ccc(C(O)(C(F)(F)F)C(F)(F)F)cc1 [T0901317] (first compound 1 µM, partner dose 7 µM) returned a cell count of 76.8%.

In turn, `COc1cc(Nc2ncc(F)c(Nc3ccc4c(n3)NC(=O)C(C)(C)O4)n2)cc(OC)c1OC` [Tamatinib] + O=c1cc(-c2cccc3c2Sc2ccccc2S3)oc(N2CCOCC2)c1 [KU55933] (first compound 2 µM, partner dose 5 µM) came in with a cell count of 85.7%.

`O=C(O)c1ccc(-c2c[nH]c3ncc(-c4ccccc4)cc23)cc1C1CCCC1` + O=C1NC(=O)/C(=C/c2ccc(-c3ccc(F)cc3O)o2)S1 [AS252424] (first compound 0.8 µM, partner dose 5 µM) returned a cell count of 118%.

As to `O=c1[nH]nc(Sc2ncc([N+](=O)[O-])s2)n1-c1ccc2c(c1)OCCO2` + CCCCCCCCCCCC1=C(O)C(=O)C=C(O)C1=O [Embelin] (first compound 1 µM, partner dose 6 µM), the cell count amounted to 86.6%.

In turn, `O=c1[nH]nc(Sc2ncc([N+](=O)[O-])s2)n1-c1ccc2c(c1)OCCO2` + Oc1cc(-c2nc(-c3ccccc3)[nH]c2-c2ccncc2)ccc1Cl [L779450] (first compound 1 µM, partner dose 1 µM) displayed a cell count of 53.2%.

With `O=c1[nH]nc(Sc2ncc([N+](=O)[O-])s2)n1-c1ccc2c(c1)OCCO2` + Oc1nc(-c2ccc(C(F)(F)F)cc2)nc2c1CSCC2 [XAV939] (first compound 1 µM, partner dose 10 µM), the cell count worked out at 87.6%.

Molecule `O=c1[nH]nc(Sc2ncc([N+](=O)[O-])s2)n1-c1ccc2c(c1)OCCO2` + COC(=O)c1sccc1S(=O)(=O)Nc1ccc(Nc2ccccc2)cc1OC [GSK0660] (first compound 1 µM, partner dose 5 µM) showed a cell count of 68.5%.

`O=C(Nc1cccc(Cl)c1)Nc1ncc(CCNc2ncnc3ccsc23)s1` + COc1ccc2c(c1)CCC1C2CCC2(C)C(NCCCCCCN3C(=O)C=CC3=O)CCC12 [U73122] (first compound 0.004 µM, partner dose 2 µM) gave a cell count of 68.9%.

Regarding `COc1cc(Nc2ncc(F)c(Nc3ccc4c(n3)NC(=O)C(C)(C)O4)n2)cc(OC)c1OC` [Tamatinib] + Oc1cc(-c2nc(-c3ccccc3)[nH]c2-c2ccncc2)ccc1Cl [L779450] (first compound 2 µM, partner dose 1 µM), the cell count is 50.5%.

`O=c1[nH]nc(Sc2ncc([N+](=O)[O-])s2)n1-c1ccc2c(c1)OCCO2` + O=C(Nc1ccccc1)c1cc([N+](=O)[O-])ccc1Cl [GW9662] (first compound 1 µM, partner dose 10 µM) registered a cell count of 69.9%.

For `COc1cc(Nc2ncc(F)c(Nc3ccc4c(n3)NC(=O)C(C)(C)O4)n2)cc(OC)c1OC` [Tamatinib] + COc1cc2ncnc(Nc3ccc(Oc4ccccc4)cc3)c2cc1OC [SrcI1] (first compound 2 µM, partner dose 10 µM), the cell count was found to be 63.1%.

In turn, `O=c1[nH]nc(Sc2ncc([N+](=O)[O-])s2)n1-c1ccc2c(c1)OCCO2` + CC(C)CCN1c2nc(Nc3cc(F)c(O)c(F)c3)ncc2N(C)C(=O)C1C [BID1870] (first compound 1 µM, partner dose 1 µM) showed a cell count of 82.6%.

Regarding `O=C(O)c1ccc(-c2c[nH]c3ncc(-c4ccccc4)cc23)cc1C1CCCC1` + COC(=O)c1sccc1S(=O)(=O)Nc1ccc(Nc2ccccc2)cc1OC [GSK0660] (first compound 0.8 µM, partner dose 5 µM), the cell count was determined as 97.1%.

`O=c1[nH]nc(Sc2ncc([N+](=O)[O-])s2)n1-c1ccc2c(c1)OCCO2` + Cn1cc(/C=C2\C(=O)Nc3cccnc32)c2ccccc21 [GW441756] (first compound 1 µM, partner dose 2 µM) yielded a cell count of 97.6%.

On to `O=c1[nH]nc(Sc2ncc([N+](=O)[O-])s2)n1-c1ccc2c(c1)OCCO2` + COc1ccc(-c2ccc3c(N4CCOCC4)nc(N4C[C@@H](C)O[C@@H](C)C4)nc3n2)cc1CO [KU0063794] (first compound 1 µM, partner dose 0.1 µM), for which the cell count is 78.1%.

Take `Cn1cncc1[C@@](N)(c1ccc(Cl)cc1)c1ccc2c(c1)c(-c1cccc(Cl)c1)cc(=O)n2C` [tipifarnib] + COc1ccc2c(c1)CCC1C2CCC2(C)C(NCCCCCCN3C(=O)C=CC3=O)CCC12 [U73122] (first compound 0.05 µM, partner dose 2 µM): the cell count was 69.4%.

In turn, `O=c1[nH]nc(Sc2ncc([N+](=O)[O-])s2)n1-c1ccc2c(c1)OCCO2` + CCN(CC)CCCCNc1ncc2cc(-c3cc(OC)cc(OC)c3)c(NC(=O)NC(C)(C)C)nc2n1 [PD173074] (first compound 1 µM, partner dose 0.5 µM) gave a cell count of 64.8%.

Consider `O=c1[nH]nc(Sc2ncc([N+](=O)[O-])s2)n1-c1ccc2c(c1)OCCO2` + COc1cc2ncnc(Nc3ccc(Oc4ccccc4)cc3)c2cc1OC [SrcI1] (first compound 1 µM, partner dose 10 µM), for which the cell count was found to be 58.6%.

Molecule `O=c1[nH]nc(Sc2ncc([N+](=O)[O-])s2)n1-c1ccc2c(c1)OCCO2` + O=C1NC(=O)/C(=C/c2ccc(-c3ccc(F)cc3O)o2)S1 [AS252424] (first compound 1 µM, partner dose 5 µM) yielded a cell count of 122%.

Regarding `O=c1[nH]nc(Sc2ncc([N+](=O)[O-])s2)n1-c1ccc2c(c1)OCCO2` + CCc1ccc(CCOc2ccc(CC3SC(=O)NC3=O)cc2)nc1 [pioglitazone] (first compound 1 µM, partner dose 10 µM), the cell count came to 81.1%.

Molecule `O=c1[nH]nc(Sc2ncc([N+](=O)[O-])s2)n1-c1ccc2c(c1)OCCO2` + O=C(O)C(=O)Nc1sc2c(c1C(=O)O)CCNC2 [TCS401] (first compound 1 µM, partner dose 8.33333 µM) came in with a cell count of 104%.

Molecule `O=c1[nH]nc(Sc2ncc([N+](=O)[O-])s2)n1-c1ccc2c(c1)OCCO2` + Nc1cccc2c1CN(C1CCC(=O)NC1=O)C2=O [lenalidomide] (first compound 1 µM, partner dose 5 µM) registered a cell count of 89.2%.
